{
  "source": "paper PMC4336329",
  "about": "(PLoS ONE, 2015)",
  "note": "About 2,200 (0.71%) of roughly 310,000 compounds showed an effect of 50% or more. Effects have a minus sign here. The list shows a part of the results.",
  "data": [
    {"biological_target": "human ether-à-go-go-related gene (hERG) potassium channel (human, UniProt Q12809)", "sequence (Q12809 whole entry, looked up)": "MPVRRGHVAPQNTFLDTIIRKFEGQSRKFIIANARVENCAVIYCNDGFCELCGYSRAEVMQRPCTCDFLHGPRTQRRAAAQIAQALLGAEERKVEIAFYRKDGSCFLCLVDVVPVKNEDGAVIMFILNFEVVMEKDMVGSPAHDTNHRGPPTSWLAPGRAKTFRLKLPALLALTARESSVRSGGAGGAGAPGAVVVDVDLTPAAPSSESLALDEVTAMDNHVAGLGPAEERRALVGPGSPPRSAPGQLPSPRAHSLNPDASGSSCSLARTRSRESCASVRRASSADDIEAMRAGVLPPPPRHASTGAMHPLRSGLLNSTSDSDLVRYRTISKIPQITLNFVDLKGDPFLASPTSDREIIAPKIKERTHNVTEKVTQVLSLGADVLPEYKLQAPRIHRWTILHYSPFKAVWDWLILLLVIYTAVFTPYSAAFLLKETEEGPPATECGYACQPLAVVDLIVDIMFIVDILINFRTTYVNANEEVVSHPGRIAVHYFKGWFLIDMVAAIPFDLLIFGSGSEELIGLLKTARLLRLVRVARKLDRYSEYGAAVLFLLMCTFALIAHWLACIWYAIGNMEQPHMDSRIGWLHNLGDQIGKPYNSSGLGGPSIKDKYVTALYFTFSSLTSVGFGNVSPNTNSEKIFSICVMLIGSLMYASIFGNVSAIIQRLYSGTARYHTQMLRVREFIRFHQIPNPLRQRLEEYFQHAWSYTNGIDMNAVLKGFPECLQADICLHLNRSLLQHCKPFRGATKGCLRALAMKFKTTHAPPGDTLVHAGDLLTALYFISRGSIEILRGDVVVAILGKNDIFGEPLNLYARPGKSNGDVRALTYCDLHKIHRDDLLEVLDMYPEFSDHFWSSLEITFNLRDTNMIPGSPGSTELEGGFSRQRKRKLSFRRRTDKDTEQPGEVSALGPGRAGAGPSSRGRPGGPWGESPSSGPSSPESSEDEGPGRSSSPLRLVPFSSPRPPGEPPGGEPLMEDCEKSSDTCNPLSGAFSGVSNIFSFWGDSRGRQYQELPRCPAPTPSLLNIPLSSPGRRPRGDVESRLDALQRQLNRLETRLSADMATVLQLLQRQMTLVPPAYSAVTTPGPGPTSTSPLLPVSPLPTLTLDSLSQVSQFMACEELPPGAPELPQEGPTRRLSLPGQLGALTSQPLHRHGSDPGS", "experiment": "primary screen, population patch clamp on CHO cells stably expressing hERG", "units": {"hERG current change (%, negative = inhibition) at 1uM": "%"}, "values": [
      {"compound": "CCOC(=O)c1c(C)[nH]c(C)c1S(=O)(=O)NCCN1CCN(c2cc(Cl)ccc2C)CC1", "hERG current change (%, negative = inhibition) at 1uM": 17.8},
      {"compound": "Cc1ccc(CONC(=O)c2cccc(C)c2)cc1", "hERG current change (%, negative = inhibition) at 1uM": -4.64},
      {"compound": "COC(=O)c1ccccc1S(=O)(=O)N1CCC(C(=O)OC(C)C(=O)NC(N)=O)CC1", "note": "(stereo not drawn)", "hERG current change (%, negative = inhibition) at 1uM": 15.8},
      {"compound": "Cn1c(C(=O)NC2CC2)cc(=O)n(C)c1=O", "hERG current change (%, negative = inhibition) at 1uM": 7.36},
      {"compound": "O=C1CN(C(=O)c2cc3ccccc3o2)c2ccccc2N1", "hERG current change (%, negative = inhibition) at 1uM": 1.56},
      {"compound": "COc1ccccc1NC(=O)C(Cc1ccc(Cl)cc1)c1nn[nH]n1", "note": "(stereo not drawn)", "hERG current change (%, negative = inhibition) at 1uM": 3.47},
      {"compound": "COc1ccc(NC(=S)NCc2ccccc2Cl)c(OC)c1", "hERG current change (%, negative = inhibition) at 1uM": 9.83},
      {"compound": "CNS(=O)(=O)c1ccc(C(=O)NCC(=O)NCCc2ccc3c(c2)OCCO3)cc1", "hERG current change (%, negative = inhibition) at 1uM": 9.8},
      {"compound": "O=C(COc1ccccc1)NCC(=O)N/N=C/C=C/c1ccccc1", "hERG current change (%, negative = inhibition) at 1uM": 8.13},
      {"compound": "Cc1cc(OCC(=O)NCCCN2CCCC2=O)c2c(C)cc(=O)oc2c1", "hERG current change (%, negative = inhibition) at 1uM": 19},
      {"compound": "COC(=O)/C=c1\\sc2ncnn2c1=O", "hERG current change (%, negative = inhibition) at 1uM": 8.57},
      {"compound": "O=C(NC(=S)Nc1cccc2[nH]ncc12)c1ccccc1", "hERG current change (%, negative = inhibition) at 1uM": 12.8},
      {"compound": "O=C(CC(=O)N/N=C/c1c(Cl)cccc1Cl)NCc1cccnc1", "hERG current change (%, negative = inhibition) at 1uM": 15.3},
      {"compound": "COc1ccccc1/C=C/C=N/n1c(C)nnc1C", "hERG current change (%, negative = inhibition) at 1uM": 5.85},
      {"compound": "CCc1noc(C)c1C(=O)NNC(=O)c1ccc(F)cc1", "hERG current change (%, negative = inhibition) at 1uM": 16.7},
      {"compound": "CCn1nnnc1SCC(=O)Nc1nc(-c2cccs2)cs1", "hERG current change (%, negative = inhibition) at 1uM": 8.07},
      {"compound": "Cc1nc(C)c(C(=O)O)c(-c2ccsc2)c1C(=O)O", "hERG current change (%, negative = inhibition) at 1uM": 8.89},
      {"compound": "Cc1ccc(CC(=O)Nc2ncc([N+](=O)[O-])s2)cc1", "hERG current change (%, negative = inhibition) at 1uM": 16.3},
      {"compound": "Cc1ccccc1-c1nn(-c2ccc(F)cc2F)cc1CNC1CC1", "hERG current change (%, negative = inhibition) at 1uM": 21.5},
      {"compound": "COCCN=c1scc(-c2ccccc2)n1/N=C/c1c[nH]c2ccccc12", "hERG current change (%, negative = inhibition) at 1uM": 18.1},
      {"compound": "O=C(NC1CCCC1)C(c1ccncc1)N(C(=O)c1csnn1)c1ccc(F)cc1", "note": "(stereo not drawn)", "hERG current change (%, negative = inhibition) at 1uM": 12.8},
      {"compound": "CCOC(=O)c1cnc2c(ccc3ccccc32)c1NCCCN(C)C", "hERG current change (%, negative = inhibition) at 1uM": -6.29},
      {"compound": "O=C(c1ccc(Oc2ccc(C(F)(F)F)cc2[N+](=O)[O-])cc1)N1CCOCC1", "hERG current change (%, negative = inhibition) at 1uM": -7.54},
      {"compound": "COc1ccc(N(CC(=O)NC2CCCC2)C(=O)c2ccc(C)s2)c(OC)c1", "hERG current change (%, negative = inhibition) at 1uM": 4.67},
      {"compound": "Oc1ccc(-c2nc(=S)[nH][nH]2)cc1", "hERG current change (%, negative = inhibition) at 1uM": 12},
      {"compound": "Cc1c(/C=N/n2cnnc2)c2ccccc2n1CCOc1ccccc1", "hERG current change (%, negative = inhibition) at 1uM": 1.96},
      {"compound": "COC(=O)/C=C/c1ccc(OC(=O)c2ccncc2)cc1", "hERG current change (%, negative = inhibition) at 1uM": 13.8},
      {"compound": "COc1cccc(OCC(=O)Nc2cc(Cl)ccc2Oc2ccccc2)c1", "hERG current change (%, negative = inhibition) at 1uM": 7.16},
      {"compound": "O=C1NC(=O)C(Cc2cccc(Oc3ccccc3)c2)S1", "note": "(stereo not drawn)", "hERG current change (%, negative = inhibition) at 1uM": 16.6},
      {"compound": "Nc1nc(C(=O)N2CCOCC2)nn1S(=O)(=O)c1ccc(Cl)cc1", "hERG current change (%, negative = inhibition) at 1uM": 2.74},
      {"compound": "O=c1[nH]n(Cc2ccccc2)c2ccccc12", "hERG current change (%, negative = inhibition) at 1uM": 9.22},
      {"compound": "O=C(CSc1nnc(-c2ccncc2)o1)NC1C2CC3CC(C2)CC1C3", "note": "(stereo not drawn)", "hERG current change (%, negative = inhibition) at 1uM": -0.0324},
      {"compound": "Cc1nnsc1C(=O)Nc1ccc(S(=O)(=O)N2CCCCC2C)cc1", "note": "(stereo not drawn)", "hERG current change (%, negative = inhibition) at 1uM": 12.5},
      {"compound": "O=C(NCC(=O)N1CCc2ccccc2C1)c1ccc(Cl)cc1Cl", "hERG current change (%, negative = inhibition) at 1uM": 3.55},
      {"compound": "O=C(Nc1ccc(Cl)cc1)C(c1ccccc1)N1CCOCC1", "note": "(stereo not drawn)", "hERG current change (%, negative = inhibition) at 1uM": 8.12},
      {"compound": "O=C(CN1CCN(c2ccccc2F)CC1)NC(=O)NCc1ccco1", "hERG current change (%, negative = inhibition) at 1uM": 14.4},
      {"compound": "COC(=O)c1nnn(CC(=O)NC(=O)Nc2ccc(F)cc2)c1C(=O)OC", "hERG current change (%, negative = inhibition) at 1uM": 11.1},
      {"compound": "COc1ccccc1C(CNc1nc(C(F)(F)F)nc2ccccc12)N(C)C", "note": "(stereo not drawn)", "hERG current change (%, negative = inhibition) at 1uM": 8.51},
      {"compound": "Cc1c(C(=O)N2CCN(Cc3ccc4c(c3)OCO4)CC2)sc2ncnc(N3CCN(c4ccccc4F)CC3)c12", "hERG current change (%, negative = inhibition) at 1uM": 12.1},
      {"compound": "CCOC(=O)NC(=O)C(=CNc1ccccc1OC)C(=O)NC(=O)OCC", "hERG current change (%, negative = inhibition) at 1uM": 9.62},
      {"compound": "CC1=NN(c2nc(-c3ccc(C)cc3)cs2)C(=O)C1N=Nc1ccc(C(N)=O)cc1", "note": "(stereo not drawn)", "hERG current change (%, negative = inhibition) at 1uM": 18.6},
      {"compound": "COc1ccc(NS(=O)(=O)c2cc(Cl)ccc2Cl)cc1S(=O)(=O)N1CCCCC1", "hERG current change (%, negative = inhibition) at 1uM": 5.46},
      {"compound": "CCC(c1nnc(SCC(=O)Nc2nnc(-c3ccccc3)o2)o1)N(C)C", "note": "(stereo not drawn)", "hERG current change (%, negative = inhibition) at 1uM": 7.8},
      {"compound": "CCc1cccc2c(C(=O)COC(=O)c3cccc(S(=O)(=O)N(C)C4CCCCC4)c3)c[nH]c12", "hERG current change (%, negative = inhibition) at 1uM": 9.04},
      {"compound": "CCOC(=O)N1CCC(NCCNC(=O)c2ccc(F)cc2)CC1.Cl", "hERG current change (%, negative = inhibition) at 1uM": 8.29}
    ]}
  ]
}
